# Where “and” joins values, the source holds several entries; their conditions need not be identical. Identical values can stand only once. The campaign covered roughly 280,000 compounds. About 100 (0.036%) were called active. Inconclusive means that the source gave no clear call. Such entries were picked first, then a sample of the others. The call rests on the fitted dose curve; in most records, active means well fitted inhibition curve with a large enough effect in the signal ratio, with a control signal flat (not every such curve was filed as active); inconclusive means small, poorly fitted or top-dose-only effect, or effect the other way, or a change in a side signal; inactive means no such curve, though single readings can be large or run the other way; the % refers to the signal ratio. Potencies of inconclusive entries are doubtful fits and often do not repeat. A note “side channel” means that the fit belongs to a control or component signal, not to the main read-out.
# Target: Muscleblind-like protein 1 (Homo sapiens) (UniProt Q9NR56)
# Experiment: qHTS Assay for Inhibitors of MBNL1-poly(CUG) RNA binding
# Conditions: TR-FRET MBNL1-His/biotin-(CUG)12 binding, 665/545 ratio; activity change, negative = inhibition: at 57.5 µM (top of the series)
# In short: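 His-tagged MBNL1 binding to biotinylated (CUG)12 RNA was measured by TR-FRET using terbium anti-His antibody (0.055 ng/ul final) and streptavidin-XL665 (5 nM final). Compounds were titrated 92 nM to 58 uM; 60 min at room temperature.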
# On the % scale 0 is the no-effect control and ±100 the full control effect; potency means the concentration at half of the fitted maximal effect; tags describe the fitted curve by direction and shape or compound fluorescence and quenching.
# UniProt Q9NR56, sequence (Q9NR56 whole entry, looked up): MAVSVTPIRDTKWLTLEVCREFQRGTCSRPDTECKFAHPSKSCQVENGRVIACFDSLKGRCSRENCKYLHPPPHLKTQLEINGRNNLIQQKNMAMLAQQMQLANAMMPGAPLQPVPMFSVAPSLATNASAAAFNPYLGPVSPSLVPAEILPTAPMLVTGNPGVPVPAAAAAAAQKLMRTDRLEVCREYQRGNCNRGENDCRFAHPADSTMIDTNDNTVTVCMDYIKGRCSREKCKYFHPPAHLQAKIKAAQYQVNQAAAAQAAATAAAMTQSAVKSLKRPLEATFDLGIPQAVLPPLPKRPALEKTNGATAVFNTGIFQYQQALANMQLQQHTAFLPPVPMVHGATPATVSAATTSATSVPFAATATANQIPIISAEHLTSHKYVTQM
SMILES,Potency,"activity change, negative = inhibition"
Cc1cc(C)n(-c2ccc([N+](=O)[O-])cc2)n1,"inconclusive: 14.1 µM [quencher, side channel, partial curve]",–
CC(NCc1cccc(Cl)c1Cl)C(O)c1ccccc1 (configuration not stated),"inconclusive: 0.112 µM [fluorescent, side channel, full curve]",–
COc1ccc(-c2nc(CSCC(=O)N3CCC4(CC3)OCCO4)c(C)o2)cc1OC,–,inactive: -0.242%
C[C@H]1COC2=C1C(=O)C(=O)c1c2ccc2c1CCCC2(C)C,"inconclusive: 44.7 µM [quencher, side channel, partial curve, poor fit]",–
O=C(c1cc2ccccc2oc1=O)N1CCC2(CC1)OCCO2,"inconclusive: 28.2 µM [quencher, side channel, single point]",–
O=[N+]([O-])c1cccc(C2N3CCCN23)c1 (configuration not stated),"inconclusive: 15.8 µM [quencher, side channel, partial curve]",–
COc1cc2[nH]c(C(=O)N3CCC4(CC3)OCCO4)cc2c(OC)c1OC,–,inactive: -4.22%
COc1ccc(N2C(=O)NC(=O)/C(=C\c3ccc([N+](=O)[O-])s3)C2=O)cc1,"inconclusive: 28.2 µM [quencher, side channel, partial curve]",–
COc1ccc(CCNC(C)CCc2ccc(OC)cc2)cc1 (configuration not stated),–,inactive: -0.41%
Cc1cccc(OP(=O)(NCc2ccccc2)Oc2cccc(C)c2)c1,"inconclusive: 0.1 µM [fluorescent, side channel, full curve]",–
CCCCOC(=O)COc1cc(C)cc2oc(=O)c3c(c12)CCC3,"inconclusive: 39.8 µM [fluorescent, side channel, single point]",–
N#CC1=C(N)Oc2n[nH]c(-c3cccs3)c2C1c1ccco1 (configuration not stated),"inconclusive: 12.6 µM [quencher, side channel, partial curve]",–
CNCC[C@H](Oc1cccc2ccccc12)c1cccs1,"inconclusive: 25.1 µM [quencher, side channel, single point]",–
CCc1ccc(-n2c(O)c(/C=N/NC(=O)c3ccncc3)c(=O)[nH]c2=O)cc1,"inconclusive: 7.08 µM [quencher, side channel, single point]",–
COc1cccc(-n2c(CN3CCOCC3)nc3ccc([N+](=O)[O-])cc3c2=O)c1,"inconclusive: 8.91 µM [quencher, full curve]",–
CCC(C)NC(=O)c1c(N)n(CC2CCCO2)c2nc3ccccc3nc12 (configuration not stated),"inconclusive: 39.8 µM [quencher, single point]",–
O=C(c1ccccc1)c1ccc(N=Nc2c(O)[nH]c(=O)[nH]c2=O)cc1,"inconclusive: 1.78 µM [quencher, side channel, full curve]",–
Cc1ccc(-c2nc3ccccc3c(=O)n2-c2ccncc2)cc1,"inconclusive: 0.112 µM [fluorescent, side channel, full curve]",–
COc1cc2c(cc1O)CC1c3c(cc(O)c(OC)c3-2)CCN1C (configuration not stated),"inconclusive: 15.8 µM [quencher, side channel, partial curve] and inconclusive: 20 µM [quencher, side channel, partial curve]",–

SMILES,Potency,"activity change, negative = inhibition"
COc1ccc(C2=NS(=O)(=O)N(C)C(C(=O)N3CCC4(CC3)OCCO4)=C2)cc1OC,"inconclusive: 14.1 µM [quencher, side channel, partial curve]",–
COc1ccc(/C=N/NC(=O)c2cccc([N+](=O)[O-])c2)cc1OC,"inconclusive: 5.62 µM [quencher, side channel, partial curve]",–
COc1ccccc1N1C(=O)NC(=O)/C(=C\c2cnn(-c3ccccc3)c2)C1=O,–,inactive: -0.916%
CC(=O)C1C2c3ccccc3OC1(C)N=c1s/c(=C/c3cnn(C)c3)c(=O)n12 (configuration not stated),"inconclusive: 14.1 µM [quencher, side channel, partial curve]",–
O=C1NC(=O)N(CCC2=CCCCC2)C(=O)/C1=C\c1cccs1,–,inactive: -7.07%
Cc1ccc(N2C(=O)NC(=O)/C(=C/c3cnc(-c4ccccc4)nc3)C2=O)cc1C,–,inactive: 16.1%
C=CCNC(=O)c1c(N)n(CCN2CCOCC2)c2nc3ccccc3nc12,"inconclusive: 25.1 µM [quencher, partial curve]",–
CCNc1cc(N2CCN(C)CC2)ccc1[N+](=O)[O-],"inconclusive: 12.6 µM [quencher, side channel, partial curve]",–
CC(=O)c1ccc2c(c1)C1C(Cl)C(Sc3ccccc3[N+](=O)[O-])CC1C(c1ccccc1[N+](=O)[O-])N2 (configuration not stated),"inconclusive: 1.78 µM [quencher, side channel, partial curve]",–
Cc1ccc2c(c1)C1CN(C)CCC1N2C(=O)/C=C/c1ccc2c(c1)OCO2 (configuration not stated),"inconclusive: 28.2 µM [quencher, side channel, single point]",–
O=C1CC2OCC=C3CN4CCC56c7cc([N+](=O)[O-])ccc7N1C5C2C3CC46 (configuration not stated),"inconclusive: 31.6 µM [quencher, side channel, single point]",–
Cc1cc(C)c(C(=O)N2CCC3(CC2)OCCO3)c(C)c1,–,inactive: 4.35%
S=c1[nH]nc(-c2ccco2)n1Cc1ccccc1,"inconclusive: 100 µM [inhibitor, single point]",–
COc1ccc(CCn2c(O)c(/C=N/NC(=O)c3ccncc3)c(=O)[nH]c2=O)cc1OC,"inconclusive: 25.1 µM [quencher, side channel, partial curve]",–
Cn1c(O)c(C(c2ccncc2)c2c(O)n(C)c(=S)n(C)c2=O)c(=O)n(C)c1=S,–,inactive: -3.76%
O=C1N=c2ccccc2=C/C1=C\c1c(O)[nH]c(=S)[nH]c1=O,"inconclusive: 15.8 µM [quencher, side channel, single point]",–
CC(C)c1ccc(N2C(=O)NC(=O)/C(=C/C=C/c3ccco3)C2=O)cc1,–,inactive: 2.14%
COc1ccccc1-n1c(O)c(/C=N/NC(=S)Nc2ccccc2)c(=O)[nH]c1=S,"inconclusive: 35.5 µM [quencher, side channel, single point]",–
